The campaign covered roughly 310,000 compounds. About 14,000 (4.5%) showed an effect of 50% or more. The effect is printed as a negative number. Some of the results follow.
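Further: peak tail current of the secondary pulse compared with the same well before compound.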

The target in the assay is human ether-à-go-go-related gene (hERG) potassium channel (human, UniProt Q12809). Put plainly: primary screen, population patch clamp on CHO cells stably expressing hERG.
Sequence of human ether-à-go-go-related gene (hERG) potassium channel (Q12809 whole entry, looked up): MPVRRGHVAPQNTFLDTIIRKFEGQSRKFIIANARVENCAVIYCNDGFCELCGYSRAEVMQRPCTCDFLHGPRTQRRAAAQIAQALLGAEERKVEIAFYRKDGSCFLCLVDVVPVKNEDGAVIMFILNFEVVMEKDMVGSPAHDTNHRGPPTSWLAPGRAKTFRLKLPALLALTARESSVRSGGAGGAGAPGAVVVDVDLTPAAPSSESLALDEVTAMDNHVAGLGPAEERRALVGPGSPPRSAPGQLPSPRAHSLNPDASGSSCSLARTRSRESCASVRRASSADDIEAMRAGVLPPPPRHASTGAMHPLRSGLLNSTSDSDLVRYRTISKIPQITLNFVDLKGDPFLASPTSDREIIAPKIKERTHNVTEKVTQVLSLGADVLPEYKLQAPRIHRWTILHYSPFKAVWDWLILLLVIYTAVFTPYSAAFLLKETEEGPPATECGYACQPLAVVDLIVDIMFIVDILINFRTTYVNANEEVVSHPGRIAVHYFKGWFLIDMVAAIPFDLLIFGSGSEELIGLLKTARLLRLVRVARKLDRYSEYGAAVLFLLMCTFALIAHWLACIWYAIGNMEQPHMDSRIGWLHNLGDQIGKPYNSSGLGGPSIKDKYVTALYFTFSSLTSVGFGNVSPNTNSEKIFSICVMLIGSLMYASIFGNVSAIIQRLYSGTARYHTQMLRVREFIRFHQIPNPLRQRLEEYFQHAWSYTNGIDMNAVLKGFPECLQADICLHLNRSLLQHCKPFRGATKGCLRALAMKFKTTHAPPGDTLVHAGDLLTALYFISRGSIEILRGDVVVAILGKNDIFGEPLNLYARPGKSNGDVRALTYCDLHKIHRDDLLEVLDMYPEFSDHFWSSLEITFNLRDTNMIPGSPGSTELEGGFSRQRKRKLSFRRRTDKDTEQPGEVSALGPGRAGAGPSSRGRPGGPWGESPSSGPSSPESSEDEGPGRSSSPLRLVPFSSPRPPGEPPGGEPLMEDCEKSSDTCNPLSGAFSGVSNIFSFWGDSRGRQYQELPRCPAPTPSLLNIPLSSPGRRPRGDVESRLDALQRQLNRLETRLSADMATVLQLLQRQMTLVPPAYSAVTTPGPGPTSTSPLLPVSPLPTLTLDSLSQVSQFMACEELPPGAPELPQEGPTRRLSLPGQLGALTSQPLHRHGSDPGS
Take `O=C(CN1C(=O)COc2ccc(Cl)cc21)Nc1nccs1`: the “hERG current change (%, negative = inhibition) at 10uM” value is reported as -5.97%.
Under `NS(=O)(=O)c1ccc(NC(=O)CN2CCc3ccccc3C2)cc1` stands 14.3%; under `ClCC1CSC(=NC23CC4CC(CC(C4)C2)C3)O1` (stereo not drawn), 11.1%.
The result for `COc1cc(/C=C/C(=O)N2CCN(CC(O)COc3ccccc3)CC2)cc(OC)c1OC.Cl` (stereo not drawn) reads -8.44%; that for `Cc1cccc(Nc2nnc(SCC(=O)Nc3ccccc3[N+](=O)[O-])s2)c1C`, 2.2%.
Consider `O=C(CCNC(=O)c1ccccc1Cl)NCCc1ccc(C(F)(F)F)cc1`, for which the “hERG current change (%, negative = inhibition) at 10uM” value was 2.17%.
For `OCCCc1nc2n(n1)C(c1cccs1)C=C(c1ccccc1)N2` (stereo not drawn), the “hERG current change (%, negative = inhibition) at 10uM” value is reported as -38.5%.
Under `O=C(c1ccc(Cl)c(S(=O)(=O)N2CCCCC2)c1)N1CCN(Cc2ccccc2)CC1` stands -59.1%; under `O=C(Cc1ccccc1[N+](=O)[O-])Nc1ccc2c(c1)OCO2`, -40.1%.
Take `COc1ccnc(N=CNOCc2ccc(C)cc2)c1C#N`: the “hERG current change (%, negative = inhibition) at 10uM” value amounted to 1.5%.
With `O=C(c1ccccc1)c1ccc(O)cc1O`, the “hERG current change (%, negative = inhibition) at 10uM” value is -3.73%.
As to `CN(CC(=O)Nc1ccc(Cl)c(C(F)(F)F)c1)C(=O)c1cc(=O)c2ccccc2o1`, the “hERG current change (%, negative = inhibition) at 10uM” value is listed as -19.1%.
The result for `CCOC(=O)CSc1nnc(-c2ccccc2OC)o1` reads -2.24%; that for `CCc1ccc(N2CC(O)=C(c3nc4ccccc4c(=O)[nH]3)C2=N)cc1`, 2.98%.
Consider `CCc1ccc(OCCn2cccn2)cc1`, for which the “hERG current change (%, negative = inhibition) at 10uM” value was found to be 8.19%.
The result for `O=C(CCN1C(=O)C2C3CCC(C3)C2C1=O)OCC(=O)c1ccc(Br)cc1` (stereo not drawn) reads -30.2%; that for `O=c1c(N2CCOCC2)c(N2CCOCC2)c1=O`, 10.9%.
The result for `CCCCNC(=O)OC(C)CNC(=O)Oc1cccc(C)c1` (stereo not drawn) reads -1.31%; that for `Cc1ccc(CN2C(=O)S/C(=C\c3ccccc3OCC(=O)O)C2=O)cc1`, 1.61%.
With `CC(C)NC(=O)CSc1nc(Cc2cccs2)nc2ccccc12`, the “hERG current change (%, negative = inhibition) at 10uM” value was found to be 7.36%.
The result for `O=C(CSc1cccc[n+]1[O-])N1CCc2ccccc21` reads 25.9%; that for `COc1ccc(-c2cc(C(=O)N3CCN(c4ccccc4OC)CC3)no2)cc1OC`, -0.868%; that for `Brc1ccccc1-c1csnn1`, 7.12%.
The result for `C=C(C)c1cccc(C(C)(C)NC(=O)NNC(=O)c2ccccc2O)c1` reads 8.35%; that for `Cc1ccc(C(=O)NC(=S)NNC(=O)c2ccccc2O)cc1`, -24.5%.
As to `Cc1cc(NC(=O)CSc2nnc(-c3ccc(Br)o3)n2Cc2ccccc2)no1`, the “hERG current change (%, negative = inhibition) at 10uM” value is -51.2%.
Regarding `Br.N=c1n(CCN2CCOCC2)c2ccccc2n1Cc1ccccc1Br`, the “hERG current change (%, negative = inhibition) at 10uM” value is recorded as -72.9%.
Take `CCOC(=O)c1cnc2c(c(C)nn2CC)c1Cl`: the “hERG current change (%, negative = inhibition) at 10uM” value is on record as -0.189%.
Regarding `COc1ccc(C(CNC(=O)CSc2ccc(Br)cc2)N2CCOCC2)cc1` (stereo not drawn), the “hERG current change (%, negative = inhibition) at 10uM” value is reported as -29.6%.
On to `COc1ccc(-c2cc(C(=O)Nc3ccc(S(=O)(=O)Nc4onc(C)c4C)cc3)c3ccccc3n2)cc1OC`, for which the “hERG current change (%, negative = inhibition) at 10uM” value was 26%.
For `COc1cccc(NC(=O)CN2C(=O)NC3(CCc4ccccc43)C2=O)c1` (stereo not drawn), the “hERG current change (%, negative = inhibition) at 10uM” value is given as 16.1%.
The result for `O=C(Cc1cccc(Cl)c1)Nc1ccc(Br)cc1` reads 16.4%; that for `COc1ccc(-c2[nH]ncc2CN(C)CCc2c(C)n[nH]c2C)c(F)c1`, 13%; that for `COc1cccc(-c2sc3ccc(OC)cc3c2C#CC2(O)CCCCC2)c1`, 18.3%.
Under `COc1ccccc1C(=O)OCn1nnc2ccccc2c1=O` stands -1.17%; under `Cc1nc(/C=C/c2ccccc2)cc(/C=C/c2ccccc2)n1`, 1.93%; under `COc1ccc(OC)c(CN2CCCC(CO)C2)c1` (stereo not drawn), 0.935%.
Consider `Cc1ccc(NC(=O)C2CCN(S(=O)(=O)c3c(C)n[nH]c3C)CC2)c(C)c1`, for which the “hERG current change (%, negative = inhibition) at 10uM” value is recorded as 15.7%.
Turning to `CC1CCN(S(=O)(=O)c2ccc(NC(=O)CN3CCCC(C)C3)cc2)CC1` (stereo not drawn), the “hERG current change (%, negative = inhibition) at 10uM” value is -11.2%.
Under `CC(Oc1ccccc1F)C(=O)NNC(=O)c1cc2ccccc2o1` (stereo not drawn) stands 11.1%.
The result for `C/C(=N\NS(=O)(=O)c1ccc(Br)cc1)c1ccc(-n2ccnc2)cc1` reads -8.71%; that for `O=C(Nc1c(C(=O)NCc2ccco2)cnn1-c1ccccc1)c1cccc(F)c1`, -29.8%.
Under `O=C(CN1C(=O)c2ccccc2C1=O)Nc1ccc(Cl)cn1` stands 38.3%; under `COc1ccc(C(C)=O)cc1COC(=O)CCC(=O)N(CC(C)C)c1c(N)n(CC(C)C)c(=O)[nH]c1=O`, 2.9%.
In the case of `CCOC(=O)c1cnn(-c2cc(Oc3ccccc3)ncn2)c1N`, the “hERG current change (%, negative = inhibition) at 10uM” value came out at 9.49%.
As for `CC1(c2ccc([N+](=O)[O-])cc2)NC(=O)NC1=O` (stereo not drawn), the “hERG current change (%, negative = inhibition) at 10uM” value amounted to 8.79%.
The result for `COC(=O)Cc1cc(=O)oc2cc(O)ccc12` reads 5.29%.
Take `O=C(OCc1nnc(-c2ccccc2)o1)c1ccc(CO)cc1`: the “hERG current change (%, negative = inhibition) at 10uM” value came to 30.6%.
Under `COc1ccc(CNC(=O)CN2C(=O)COc3ccc(S(=O)(=O)N4CCCC4)cc32)cc1` stands -2.07%; under `O=C(/C=C/c1ccco1)NCc1ccc2c(c1)OCO2`, 6.92%; under `Cn1cccc1Cc1nnc(SCC(=O)N2CCCc3ccccc32)n1-c1ccc(F)cc1`, -16%.
Under `Cc1cccc(CCNC(=O)c2nnc(Cc3ccc(Cl)cc3)o2)c1` stands 4.7%; under `CCCCn1c2c(c(=O)n(C)c1=O)C(c1ccc(OC)cc1)N1CCCCCC1=N2` (stereo not drawn), -21.9%; under `O=C(Cn1c(C(F)(F)F)nc2ccccc21)c1ccc(Cl)cc1`, -20.5%.
Regarding `Cc1nc(C(=O)N2CCCC(N3CCN(c4ccccc4C)CC3)C2)cs1` (stereo not drawn), the “hERG current change (%, negative = inhibition) at 10uM” value is -39.5%.
For the compound `Cn1c2c(c(=O)n(C)c1=O)CN(Cc1ccc(F)cc1)CN2`, the “hERG current change (%, negative = inhibition) at 10uM” value is reported as 5.51%.
With `COc1ccc(C2=NN(S(C)(=O)=O)C(c3ccc4nccnc4c3)C2)cc1` (stereo not drawn), the “hERG current change (%, negative = inhibition) at 10uM” value was -5.74%.

(Values after PMC4336329 (PLoS ONE, 2015).)
